Test results as given in the RNAGym collection of RNA variant scans (doi:10.7554/elife.90254).
Read counts are not given, so values of variants with three or more changes are uncertain.

B1: LINE1-mini (parent)
chain: GGCAGAGCUCAACACAGCGUGGCAAAGUGGCUGUGGCUAGACUGCC

Variants of: B1
Test: self-cleavage, relative activity (ratio to wild type); higher = more cleavage; in vitro, sequencing; the parent is a self-cleaving ribozyme

Row | Variant | self-cleavage
1 | C3G C13A A16C A26G | 0.16
2 | A16U C37A G44U | 0.15
3 | A24C G30U C46U | 0.19
4 | G2C C3U C8G | 0.04
5 | G1A C31G U34G | 0.03
6 | C3U A26U C42U | 0.06
7 | A14C C18G C46G | 0.02
8 | C3A G5C G29U C42U | 0.31
9 | U9C G17U A41C | 0.01
10 | U9C C15G G17C U34G G36A | 0.01
11 | A16C U20C G30A | 0.13
12 | G7U A11G C15U G19U C37U | 0.03
13 | C10A C15U A25U | 0.02
14 | U32C C37A C45U | 0.05
15 | A11G A12G G21U G40C A41C | 0
16 | G2U C8U A12G G22A C23A A39U | 0.07
17 | G1C G7U A14G | 0.02
18 | C3A A4G A26G C45A | 0.35
19 | C23A A24U C37A | 0.02
20 | A16U G17A A26G G35U | 0.03
21 | U20A C23G G29C G35A G36U | 0.04
22 | A16C U20G U32C A41C | 0.02
23 | G7A G22A C23U | 0.01
24 | G36A C37U G44U | 0.23

Row | Variant | self-cleavage
25 | C10U A11G A12G G21U G30C C42A | 0
26 | C8A G21U C45U | 0.18
27 | C3G A14U G22U G35U | 0.1
28 | C3U G5U G27C C37G G40A | 0.13
29 | G33C C37G C46U | 0.03
30 | G1U G36U C46U | 0.22
31 | G7A A11C C23G G40U | 0
32 | G17C C18A C23A G33C G36A | 0.03
33 | U20C G29C U38A | 0.05
34 | U9A C13U U20C | 0.2
35 | G1A A4G C13U G40C | 0.03
36 | G5C G7U A11G G17C C23U U32C | 0.05
37 | G2A A4U G19A G30U | 1.36
38 | G27U A41U C45A C46A | 0.06
39 | A12U G17A U20G G21A U32C | 0
40 | C3U C23A U32C | 0.28
41 | G1A G21A G44A | 1.08
42 | G5U U9A C15U A16G C23U G33U | 0.19
43 | C13A G30U C46U | 0.09
44 | C3U U9A C10G C45G | 0.03
45 | C23U U28G G30A | 0.63
46 | C8U A41C C42A | 0.01
47 | A16C C18U G33U | 0.07
48 | G1U G27U C37A | 0.03

Row | Variant | self-cleavage
49 | U9G U38A C42U U43G | 0.25
50 | C3G A4G G30A G44A | 0.04
51 | C3A U34C G35U | 0.76
52 | C8U G17C C31U | 0.13
53 | U9C A25U C42G C45A | 0
54 | G7U C13U A26C U38C | 0.03
55 | G5C C10A C18U U43C | 0.02
56 | C8G U20A C23U A24U | 0.08
57 | G19U G27A C37U | 0.03
58 | G2C C13A A26C U28A U32G C45A | 0.02
59 | G2C G17U U34G U38G | 0.02
60 | C8A C15U G21U U28C | 0.26
61 | A4U A26U C46A | 0.35
62 | A11G A14C U20A | 0
63 | G5U G29U C42G C46A | 0.01
64 | G5C G21U G36C | 0.07
65 | A11C C15G U34G G40U | 0.01
66 | G2A C10A A16G G22U | 0.03
67 | C18U U43A G44C C46A | 0.08
68 | A6C A26C G33A | 0.08
69 | G21C A24C G44U | 0.11
70 | C3A U20A C45U | 0.42
71 | G29A C37U G40C | 0.06
72 | A41U C42G C46G | 0.03

Row | Variant | self-cleavage
73 | C10G A25U G30C U43A | 0
74 | C15G G22U U38C G40U | 0.01
75 | G1C A6C C15G G33A U38C | 0
76 | G21U G40U A41C G44U | 0.11
77 | G21C G40C G44U | 0.02
78 | A11C A16G G19A | 0.02
79 | A6C A16U U20A G30U U34C | 0.24
80 | C3U G5A G27C G36C | 0.19
81 | G17U U32A C37A | 0.03
82 | C3G A14C A16U G17A | 0.03
83 | A6G A24G C37A | 0.03
84 | G1U C10A A12C C42U | 0.01
85 | G1C A26C G30A | 0.53
86 | C8U G21U G22C A25C G30C | 0.16
87 | G2C A11C G17U C23A | 0.02
88 | C31U G33U C42A | 0
89 | G2C U9G C15A A41G C42U | 0.06
90 | G2C U32A U34A | 0.18
91 | G5U A41G C42U C46G | 0.05
92 | C8U C13G G17C G44A | 0.07
93 | G5U A6C C8U G35U | 0.1
94 | C3A A4C C8A A24U A26U G30U C46G | 0.69
95 | C13G C23U C31U G33C | 0.02
96 | C3A U28C C31U | 0.12

Row | Variant | self-cleavage
97 | C3A A6G G40A | 0.18
98 | U9A A11U U20C C23G C45A | 0.02
99 | A6U G27C G36A | 0.05
100 | C3A G19A A26U | 1.53
101 | A14U C23G A24G C31G U32A | 0.02
102 | U9G A12G A16C | 0.01
103 | G2A C18G G35C A39U C46A | 0.05
104 | C15U G17C G21A | 0.08
105 | G17C C18A G30U C42A | 0.02
106 | G7U G17U G44A | 0.1
107 | G2U G5U C15U G22A U32C G36A | 0.01
108 | G2C A6G C13U A39C | 0.07
109 | G2U C18A G33A | 0.01
110 | C8U C15G G30U | 0.04
111 | G1A A6U A14G G17U U32G C37G | 0.04
112 | A14G G19C C23A | 0.11
113 | C8G U9A C10A A25G C46U | 0.01
114 | A4C U28C C31A G44A C46U | 0.04
115 | C10A C13U U28G C31U | 0.04
116 | A12G C13G C15A G17U U20C C45G | 0.02
117 | G1U A11U C37U | 0.02
118 | C3U U9A G29A C42U | 0.78
119 | C3U A12C C18A C37G | 0.03
120 | A14G G21U U32A U34G | 0.03

Row | Variant | self-cleavage
121 | G1U A25C G27A | 0.29
122 | G22U G29A G44U | 0.2
123 | C8A A14C U32C G33A C42U C46A | 0.14
124 | A14C A16C G19C U32G | 0.03
125 | G7U C13U G19U G21C G33C C37A | 0.3
126 | G5U C8U C31A | 0.11
127 | G29A G30U G36A | 0.28
128 | C8A G17A G22U | 0.17
129 | G1A C15A A41C | 0.14
130 | G1U U9G G27A | 0.06
131 | G1C C13U A26C G29A U43C | 0.04
132 | A12G A16C U20A U38A | 0.01
133 | A4C A39C G44A | 0.01
134 | G7A C23A A41G | 0.15
135 | G2A A26U C42A | 0.07
136 | A14G U20G A24G C37A G44U | 0.03
137 | C10A A26C U32G A39U C42A | 0.02
138 | G2U U20C C37A | 0.06
139 | A12U A14G A16U G27A G29A C31G | 0.03
140 | G2C G21C G22A C37U | 0
141 | C10A C13A G30U C46G | 0.05
142 | G2U A11U A41G G44C | 0.02
143 | C10A C13U C31U C42U | 0.05
144 | A6G G22U U43G | 0

Row | Variant | self-cleavage
145 | C3A G19C C31A | 0.27
146 | C10A A26C C37A A41C | 0.01
147 | A6U U9G C13G A16U C18A U32A | 0.01
148 | G1C G5A C15A A41G | 0.03
149 | C31U G35A A39G | 0.02
150 | C8G A12G G17C U43G C46A | 0.01
151 | C10A C31A C37A | 0.05
152 | G2U U9A A11G | 0.01
153 | C3A G5C A12C G19U U20C G27A C42U G44U | 0.01
154 | G7C U9C C15U A41C | 0.02
155 | C15G U20A G22U U28C G35A | 0.04
156 | G1A G19A G30U | 1.62
157 | A4C G7C C10A A14G | 0.06
158 | G29C C37U G40U | 0.08
159 | G5U G17U G36U | 0.05
160 | A14U G17U G22U | 0.12
161 | G2U C3G G5U C42A C45U | 0.07
162 | C3U G21C A25G U28A U43A | 0
163 | G1A G19U G35U C42G | 0.08
164 | A6G G7U C10A | 0.01
165 | C23U G29C U43C | 0.02
166 | A11G C13G A14G G19C A26C U28G | 0.03
167 | U9A A12U C18A U34A | 0.01
